# Assay results from paper PMC4336329 (PLoS ONE, 2015).
# Among all 310,000 compounds or so, about 2,200 (0.71%) showed an effect of 50% or more. Effects have a minus sign here. The list shows a part of the results.
# Target: human ether-à-go-go-related gene (hERG) potassium channel (human, UniProt Q12809)
# Test: primary screen, population patch clamp on CHO cells stably expressing hERG
# human ether-à-go-go-related gene (hERG) potassium channel, sequence (Q12809 whole entry, looked up): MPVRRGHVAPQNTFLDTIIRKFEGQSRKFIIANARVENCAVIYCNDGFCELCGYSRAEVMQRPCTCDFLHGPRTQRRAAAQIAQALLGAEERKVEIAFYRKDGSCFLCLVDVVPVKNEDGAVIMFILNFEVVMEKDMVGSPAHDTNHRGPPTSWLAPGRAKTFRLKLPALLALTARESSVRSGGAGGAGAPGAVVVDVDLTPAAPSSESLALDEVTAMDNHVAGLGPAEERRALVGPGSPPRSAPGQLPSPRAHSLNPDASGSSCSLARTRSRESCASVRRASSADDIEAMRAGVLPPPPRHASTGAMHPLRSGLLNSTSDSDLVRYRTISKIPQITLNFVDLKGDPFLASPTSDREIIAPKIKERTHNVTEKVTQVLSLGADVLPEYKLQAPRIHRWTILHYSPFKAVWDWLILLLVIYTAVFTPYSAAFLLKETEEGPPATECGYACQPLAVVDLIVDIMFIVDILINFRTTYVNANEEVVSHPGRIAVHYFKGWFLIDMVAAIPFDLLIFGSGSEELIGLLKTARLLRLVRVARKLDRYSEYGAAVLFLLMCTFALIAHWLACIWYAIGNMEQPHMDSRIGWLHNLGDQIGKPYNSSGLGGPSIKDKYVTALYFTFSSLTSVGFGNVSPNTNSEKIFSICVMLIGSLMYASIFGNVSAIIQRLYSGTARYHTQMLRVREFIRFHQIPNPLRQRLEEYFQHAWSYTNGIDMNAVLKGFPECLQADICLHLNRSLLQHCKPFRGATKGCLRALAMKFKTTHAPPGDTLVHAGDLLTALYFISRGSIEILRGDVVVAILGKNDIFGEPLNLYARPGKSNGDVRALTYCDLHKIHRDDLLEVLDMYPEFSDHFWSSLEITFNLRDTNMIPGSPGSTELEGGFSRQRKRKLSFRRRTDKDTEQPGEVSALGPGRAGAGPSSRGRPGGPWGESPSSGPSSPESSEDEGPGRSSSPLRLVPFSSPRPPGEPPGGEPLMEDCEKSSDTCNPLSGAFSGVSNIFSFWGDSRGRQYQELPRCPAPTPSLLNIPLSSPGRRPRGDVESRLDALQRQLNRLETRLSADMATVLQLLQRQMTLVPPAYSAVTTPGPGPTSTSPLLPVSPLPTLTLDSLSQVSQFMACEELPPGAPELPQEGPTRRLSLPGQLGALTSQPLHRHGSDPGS
row,SMILES,"hERG current change (%, negative = inhibition) at 1uM"
1,Cc1ccnc(NC(=O)C2CCN(S(=O)(=O)c3ccc4c(c3)CC(C)N4C(=O)C3CCC3)CC2)c1 (stereo not shown),15.6%
2,Cc1ccc(Cl)cc1N1CCN(C(=O)c2ccc3c(c2)CCN3S(C)(=O)=O)CC1,14%
3,O=C1c2ccccc2S(=O)(=O)N1Cc1cc(=O)n2ccsc2n1,7.45%
4,CCOCCCNC(=O)c1cc2cc3cc(OC)ccc3nc2o1,7.34%
5,COc1ccc(NC(=O)Cn2cnc3sc(C)c(S(=O)(=O)N4CCOCC4)c3c2=O)c(OC)c1,12.6%
6,COc1ccc(N(C)C(=O)c2ccc(NC(=O)CCS(=O)(=O)c3cccs3)cc2)cc1,16.4%
7,COc1ccccc1N(C)S(=O)(=O)c1ccc(C(=O)Nc2ccc(N3CCOCC3)cc2)cc1,8.26%
8,CCc1cc2c(NC(Cc3c[nH]c4ccccc34)C(=O)O)nc(C)nc2s1 (stereo not shown),18.1%
9,CCCc1nc(C)c2c(=O)[nH]c(-c3cc(S(=O)(=O)N4CCN(CC)CC4)ccc3OCC)nn12.O=C(O)CC(O)(CC(=O)O)C(=O)O,10.1%
10,Cc1ccc(S(=O)(=O)N(CC2CO2)c2cc(Cl)ccc2Cl)cc1 (stereo not shown),-1.43%
11,O=c1c2ccc(Cl)cc2nc(-c2ccc([N+](=O)[O-])cc2)n1O,13%
12,Cc1cc(OCC(=O)NNC(=O)c2ccncc2)cc(C)c1Cl,16.9%
13,Cc1ccc(-c2csc3ncnc(Nc4ccc(C(=O)O)cc4)c23)cc1.Cl,5.36%
14,CCC(=O)OC1CC(C)N(C(=O)c2ccccc2)c2ccc(C)cc21 (stereo not shown),1.47%
15,CCOc1ccccc1N1CCN(C(=O)C2c3ccccc3Oc3ccccc32)CC1,3.52%
16,CC1(C(=O)OCC(=O)Nc2cccc(S(=O)(=O)NC3=NCCCCC3)c2)CC1(Cl)Cl (stereo not shown),9.62%
17,COc1cc(CN2CC3CC(C2)c2cccc(=O)n2C3)cc(OC)c1OC (stereo not shown),6.15%
18,CCCCC1=CC2=CC(=O)C(C)(OC(=O)CC)C(=O)C2=CN1CCCOC(C)C (stereo not shown),2.73%
19,O=C(Nc1cccc(S(=O)(=O)N2CCCCC2)c1)c1ccc2c(c1)OCO2,8.6%
20,O=C(COc1coc(CN2CCN(c3ccc(F)cc3)CC2)cc1=O)NC1CCCC1,-16.9%
21,Cc1cccc(NC(=O)c2ccc(S(=O)(=O)N3CCC(C)CC3)cc2)n1,-15%
22,COc1cc(C)ccc1OCc1cc(C(=O)N2CCN(C3CCCCC3)CC2)no1,9.23%
